# Source: patent US4409208A, “GnRH antagonists” (The Salk Institute for Biological Studies, priority 1981, dated 1983)
# Not every detail of the peptide structures is certain; ends, links or a residue may be inferred. Where a SMILES comes first, the peptide text is derived from it. [ ]: non-standard residue; d: D form. The star is where a group is joined. dPhe(3,4-Cl2) = N[C@H](Cc1ccc(Cl)c(Cl)c1)C(=O)O; dHis(τ-Bn) = N[C@H](Cc1cn(Cc2ccccc2)cn1)C(=O)O; dPhe(4-Cl) = N[C@H](Cc1ccc(Cl)cc1)C(=O)O; dPhe(4-Me) = Cc1ccc(C[C@@H](N)C(=O)O)cc1; NMeL = CN[C@@H](CC(C)C)C(=O)O; dΔPro = O=C(O)[C@H]1C=CCN1; ΔPro = O=C(O)[C@@H]1C=CCN1; Acryloyl = C=CC(=O)*
# Tests used:
# [1] = test system: ovulation in mature female Sprague-Dawley rats; assay: In vivo prevention of ovulation in female rats, peptide injected in corn oil at noon on the day of proestrous; design: species or system rat; conditions: ovulating/treated
# [2] = test system: dissociated rat pituitary cells; assay: In vitro inhibition of GnRH-induced LH release, rat LH radioimmunoassay; type: cell-based; conditions: 3 nanomolar GnRH; dissociated rat pituitary cells cultured 4 days
# [3] = 0.02 milligram of peptide in corn oil
Structure (SMILES),In Vivo Rats Ovulating ([1]; 10 μg of peptide in corn oil),In Vitro ICR50: molar concentration ratio of test peptide to GnRH (antagonist/GnRH) required to reduce LH released to 50 percent of the control value [2],In Vivo Rats Ovulating ([1]; 5 μg of peptide in corn oil),In Vivo Rats Ovulating ([1]; 0.025 mg of peptide in corn oil),"In Vivo Rats Ovulating [1, 3]",In Vivo Rats Ovulating ([1]; 0.010 mg of peptide in corn oil)
COc1ccc(C[C@@H](NC(=O)[C@@H]2C=CCN2C(C)=O)C(=O)N[C@H](Cc2c[nH]c3ccccc23)C(=O)N[C@@H](CO)C(=O)N[C@@H](Cc2ccc(O)cc2)C(=O)N[C@H](Cc2c[nH]c3ccccc23)C(=O)N(C)[C@@H](CC(C)C)C(=O)N[C@@H](CCCNC(=N)N)C(=O)N2CCC[C@H]2C(=O)NCC(N)=O)cc1 [Peptide 26] (Ac-[ΔPro][dY](Me)[dW]SY[dW][NMeL]RPG-NH2),5/10,0.29,,,,
CC(=O)N1CC=C[C@H]1C(=O)N[C@H](Cc1ccc(C)cc1)C(=O)N[C@H](Cc1c[nH]c2ccccc12)C(=O)N[C@@H](CO)C(=O)N[C@@H](Cc1ccc(O)cc1)C(=O)N[C@H](Cc1c[nH]c2ccccc12)C(=O)N(C)[C@@H](CC(C)C)C(=O)N[C@@H](CCCNC(=N)N)C(=O)N1CCC[C@H]1C(=O)NCC(N)=O [Peptide 27] (Ac-[ΔPro][dPhe(4-Me)][dW]SY[dW][NMeL]RPG-NH2),3/4,0.11,,,,
"CC(=O)N1CC=C[C@H]1C(=O)N[C@H](Cc1ccc(Cl)c(Cl)c1)C(=O)N[C@H](Cc1c[nH]c2ccccc12)C(=O)N[C@@H](CO)C(=O)N[C@@H](Cc1ccc(O)cc1)C(=O)N[C@H](Cc1c[nH]c2ccccc12)C(=O)N(C)[C@@H](CC(C)C)C(=O)N[C@@H](CCCNC(=N)N)C(=O)N1CCC[C@H]1C(=O)NCC(N)=O [Peptide 28] (Ac-[ΔPro][dPhe(3,4-Cl2)][dW]SY[dW][NMeL]RPG-NH2)",1/3,0.05,8/10,,,
CC(=O)N1CC=C[C@H]1C(=O)N[C@H](Cc1ccc(Cl)cc1)C(=O)N[C@H](Cc1c[nH]c2ccccc12)C(=O)N[C@@H](CO)C(=O)N[C@@H](Cc1ccc(O)cc1)C(=O)N[C@H](Cc1c[nH]c2ccccc12)C(=O)N[C@@H](CC(C)C)C(=O)N[C@@H](CCCNC(=N)N)C(=O)N1CCC[C@H]1C(=O)NCC(N)=O [Peptide 29] (Ac-[ΔPro][dPhe(4-Cl)][dW]SY[dW]LRPG-NH2),,0.043,,0/10,,
CC(=O)N1CC=C[C@H]1C(=O)N[C@H](Cc1ccc(Cl)cc1)C(=O)N[C@H](Cc1c[nH]c2ccccc12)C(=O)N[C@@H](CO)C(=O)N[C@@H](Cc1ccc(O)cc1)C(=O)N[C@H](Cc1c[nH]c2ccccc12)C(=O)N(C)[C@@H](CC(C)C)C(=O)N[C@@H](CCCNC(=N)N)C(=O)N1CCC[C@H]1C(=O)NCC(N)=O [Peptide 30] (Ac-[ΔPro][dPhe(4-Cl)][dW]SY[dW][NMeL]RPG-NH2),,0.058,,,0/7,
CC(=O)N1CC=C[C@@H]1C(=O)N[C@H](Cc1ccc(Cl)cc1)C(=O)N[C@H](Cc1c[nH]c2ccccc12)C(=O)N[C@@H](CO)C(=O)N[C@@H](Cc1ccc(O)cc1)C(=O)N[C@H](Cc1c[nH]c2ccccc12)C(=O)N[C@@H](CC(C)C)C(=O)N[C@@H](CCCNC(=N)N)C(=O)N1CCC[C@H]1C(=O)NCC(N)=O [Peptide 31] (Ac-[dΔPro][dPhe(4-Cl)][dW]SY[dW]LRPG-NH2),,0.19,,,3/8,
CC(=O)N1CC=C[C@@H]1C(=O)N[C@H](Cc1ccc(Cl)cc1)C(=O)N[C@H](Cc1c[nH]c2ccccc12)C(=O)N[C@@H](CO)C(=O)N[C@@H](Cc1ccc(O)cc1)C(=O)N[C@H](Cc1c[nH]c2ccccc12)C(=O)N(C)[C@@H](CC(C)C)C(=O)N[C@@H](CCCNC(=N)N)C(=O)N1CCC[C@H]1C(=O)NCC(N)=O [Peptide 32] (Ac-[dΔPro][dPhe(4-Cl)][dW]SY[dW][NMeL]RPG-NH2),,0.27,,,,5/10
C=CC(=O)N1CC=C[C@H]1C(=O)N[C@H](Cc1ccc(Cl)cc1)C(=O)N[C@H](Cc1c[nH]c2ccccc12)C(=O)N[C@@H](CO)C(=O)N[C@@H](Cc1ccc(O)cc1)C(=O)N[C@H](Cc1c[nH]c2ccccc12)C(=O)N(C)[C@@H](CC(C)C)C(=O)N[C@@H](CCCNC(=N)N)C(=O)N1CCC[C@H]1C(=O)NCC(N)=O [Peptide 33] (Acryloyl-[ΔPro][dPhe(4-Cl)][dW]SY[dW][NMeL]RPG-NH2),,0.03,,,0/9,
CC(=O)N1CC=C[C@H]1C(=O)N[C@H](Cc1ccc(Cl)cc1)C(=O)N[C@H](Cc1c[nH]c2ccccc12)C(=O)N[C@@H](CO)C(=O)N[C@@H](Cc1ccc(O)cc1)C(=O)N[C@H](Cc1cn(Cc2ccccc2)cn1)C(=O)N[C@@H](CC(C)C)C(=O)N[C@@H](CCCNC(=N)N)C(=O)N1CCC[C@H]1C(=O)NCC(N)=O [Peptide 35] (Ac-[ΔPro][dPhe(4-Cl)][dW]SY[dHis(τ-Bn)]LRPG-NH2),,0.042,,,4/10,
CC(=O)N1CC=C[C@@H]1C(=O)N[C@H](Cc1ccc(Cl)cc1)C(=O)N[C@H](Cc1c[nH]c2ccccc12)C(=O)N[C@@H](CO)C(=O)N[C@@H](Cc1ccc(O)cc1)C(=O)N[C@H](Cc1cn(Cc2ccccc2)cn1)C(=O)N[C@@H](CC(C)C)C(=O)N[C@@H](CCCNC(=N)N)C(=O)N1CCC[C@H]1C(=O)NCC(N)=O [Peptide 36] (Ac-[dΔPro][dPhe(4-Cl)][dW]SY[dHis(τ-Bn)]LRPG-NH2),,0.2,,,10/10,
